The list shows a part of the results.
B1: PhoQ; a variant is named by its letters at X, in order, P23837 (parent)
chain: MKKLLRLFFPLSLRVRFLLATAAVVLVLSLAYGMVALIGYSVSFDKTTFRLLRGESNLFYTLAKWENNKLHVELPENIDKQSPTMTLIYDENGQLLWAQRDVPWLMKMIQPDWLKSNGFHEIEADVNDTSLLLSGDHSIQQQLQEVREDDDDAEMTHSVAVNVYPATSRMPKLTIVVVDTIPVELKSSYMVWSWFIYVLSANLLLVIPLLWVAAWWSLRPIEALAKEVRELEEHNRELLNPATTRELTSLVRNLNRLLKSERERYDKYRTTLTDLTHSLKTPLXXLQXXLRSLRSEKMSVSDAEPVMLEQISRISQQIGYYLHRASMRGGTLLSRELHPVAPLLDNLTSALNKVYQRKGVNISLDISPEISFVGEQNDFVEVMGNVLDNACKYCLEFVEISARQTDEHLYIVVEDDGPGIPLSKREVIFDRGQRVDTLRPGQGVGLAVAREITEQYEGKIVAGESMLGGARMEVIFGRQHSAPKDE

Variants of: B1
Experiment: enrichment ratio after two sorts for PhoP signalling (ratio (wild type AVST 3.29)); higher = more functional
Conditions: with PhoP (E. coli)

| Variant | enrichment ratio |
| --- | --- |
| NEYF | ≤ 0.25 |
| VWQE | ≤ 0.25 |
| FGTV | ≤ 0.25 |
| SDGM | ≤ 0.25 |
| IIEN | ≤ 0.25 |
| FSAM | 4.43 |
| SFVW | ≤ 0.25 |
| KNHL | ≤ 0.25 |
| TTLH | 19.7 |
| GSKQ | ≤ 0.25 |
| WKGR | ≤ 0.25 |
| GKKW | ≤ 0.25 |
| DTVL | ≤ 0.25 |
| MEDY | ≤ 0.25 |
| ESEF | ≤ 0.25 |
| WEAT | ≤ 0.25 |
| PSNS | ≤ 0.25 |
| SDTK | ≤ 0.25 |
| LGIT | ≤ 0.25 |
| SRAA | ≤ 0.25 |
| WNYK | ≤ 0.25 |
| AFRD | ≤ 0.25 |
| EFSF | ≤ 0.25 |
| MFKF | ≤ 0.25 |
| LGML | 6.19 |

| Variant | enrichment ratio |
| --- | --- |
| FIMW | ≤ 0.25 |
| VLGF | ≤ 0.25 |
| RRMS | ≤ 0.25 |
| HTKV | ≤ 0.25 |
| AGHT | ≤ 0.25 |
| LVNL | ≤ 0.25 |
| MEVH | 1.05 |
| IYSF | ≤ 0.25 |
| LEEG | ≤ 0.25 |
| SDND | ≤ 0.25 |
| YFSY | ≤ 0.25 |
| VNIL | 0.383 |
| KYDG | ≤ 0.25 |
| WRPH | ≤ 0.25 |
| RRPF | ≤ 0.25 |
| AVLI | 1.4 |
| LPHP | ≤ 0.25 |
| DHRF | ≤ 0.25 |
| GDHW | ≤ 0.25 |
| YIDL | ≤ 0.25 |
| PTGQ | ≤ 0.25 |
| YEYY | ≤ 0.25 |
| TVCE | 13.5 |
| KDTA | ≤ 0.25 |
| GSHF | ≤ 0.25 |

| Variant | enrichment ratio |
| --- | --- |
| ACFN | ≤ 0.25 |
| NQYL | ≤ 0.25 |
| DYAM | ≤ 0.25 |
| QYPY | ≤ 0.25 |
| RTTM | ≤ 0.25 |
| GETA | ≤ 0.25 |
| YRIT | ≤ 0.25 |
| YGCV | 6.54 |
| WKPK | ≤ 0.25 |
| QRFQ | ≤ 0.25 |
| HYLC | ≤ 0.25 |
| ERGN | ≤ 0.25 |
| FPRQ | ≤ 0.25 |
| TNDS | ≤ 0.25 |
| RHYD | ≤ 0.25 |
| YGFL | ≤ 0.25 |
| NLFQ | ≤ 0.25 |
| SSGC | 13.8 |
| PTQN | ≤ 0.25 |
| TPFA | ≤ 0.25 |
| EYLH | ≤ 0.25 |
| IALV | 13.1 |
| RYTE | 0.475 |
| VITV | ≤ 0.25 |
| IMNH | ≤ 0.25 |

| Variant | enrichment ratio |
| --- | --- |
| INNR | ≤ 0.25 |
| MIEP | ≤ 0.25 |
| VSDV | ≤ 0.25 |
| GKRC | ≤ 0.25 |
| NQDR | ≤ 0.25 |
| IQNY | ≤ 0.25 |
| ILWG | ≤ 0.25 |
| GFTL | ≤ 0.25 |
| SLYL | ≤ 0.25 |
| PILK | ≤ 0.25 |
| YMKW | ≤ 0.25 |
| MITT | ≤ 0.25 |
| VFTP | ≤ 0.25 |
| DEHH | ≤ 0.25 |
| GDYE | ≤ 0.25 |
| TLNN | ≤ 0.25 |
| YQTP | ≤ 0.25 |
| WSLT | ≤ 0.25 |
| YMSV | ≤ 0.25 |
| KMNC | ≤ 0.25 |
| YRHK | ≤ 0.25 |
| RYPC | ≤ 0.25 |
| HEDY | ≤ 0.25 |

Source: a collection of fitness landscapes (doi:10.1126/science.1257360)
